# Measured values from paper PMC6919601, “Identification of Plasmodium dipeptidyl aminopeptidase allosteric inhibitors by high throughput screening” (PLoS ONE, 2019).
# Out of some 110,000 compounds screened, about 230 (0.21%) showed an effect of 50% or more. The list shows a part of the results.
# Molecular target: DPAP1 (Plasmodium falciparum, UniProt Q8IIJ9)
# Assay: primary screen, percent inhibition; read by cleavage of a fluorogenic dipeptide substrate; higher = more effect of the substance
# Parameters: species or system P. falciparum D10 trophozoite lysates; single well
# 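Note: 30 min substrate incubation versus DMSO and 10 µM JCP410 controls.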
# Chain of DPAP1 (Q8IIJ9 whole entry, looked up): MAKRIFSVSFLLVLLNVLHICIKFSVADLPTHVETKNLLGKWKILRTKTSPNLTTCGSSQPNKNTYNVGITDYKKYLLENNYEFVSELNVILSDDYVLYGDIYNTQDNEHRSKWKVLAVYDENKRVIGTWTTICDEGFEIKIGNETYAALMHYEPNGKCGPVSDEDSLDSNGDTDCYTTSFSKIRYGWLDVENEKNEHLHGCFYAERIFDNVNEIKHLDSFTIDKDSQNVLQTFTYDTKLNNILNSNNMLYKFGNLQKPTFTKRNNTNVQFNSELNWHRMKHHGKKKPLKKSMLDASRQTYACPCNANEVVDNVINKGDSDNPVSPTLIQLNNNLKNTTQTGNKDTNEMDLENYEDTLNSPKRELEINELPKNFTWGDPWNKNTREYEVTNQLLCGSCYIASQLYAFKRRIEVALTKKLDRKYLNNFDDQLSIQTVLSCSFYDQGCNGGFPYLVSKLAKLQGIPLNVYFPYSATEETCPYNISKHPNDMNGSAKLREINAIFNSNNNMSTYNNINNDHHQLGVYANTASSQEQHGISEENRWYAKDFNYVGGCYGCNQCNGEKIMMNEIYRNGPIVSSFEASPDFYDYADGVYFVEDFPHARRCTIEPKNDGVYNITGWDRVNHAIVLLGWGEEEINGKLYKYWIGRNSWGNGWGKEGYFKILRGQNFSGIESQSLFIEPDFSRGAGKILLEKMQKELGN
row,Compound,% Inhibition @ 10 uM [%]
1,CCOC(=O)c1c(-c2ccccc2)nn(-c2ccccc2)c1C,-2.77
2,COC(=O)c1ccc(C2c3c(oc4ccccc4c3=O)C(=O)N2c2ccc(C)cn2)cc1 (stereo not shown),-3.64
3,CC(C)c1ccc(N2C(=O)CC(N3CCc4ccccc4C3)C2=O)cc1 (stereo not shown),4.76
4,COc1ccc(-c2nn3c(-c4ccc(C(C)(C)C)cc4)nnc3s2)cc1,3.59
5,Cn1c(=O)c2c(nc3n(Cc4ccc5c(c4)OCO5)c(-c4ccccc4)cn23)n(C)c1=O,-0.564
6,COc1ccc(C2CC(=O)Nc3cc(C)c(C)cc32)c(OC)c1OC (stereo not shown),-7.25
7,COc1ccc(C2/C(=C(\O)OC3CCCCC3)C(C)=Nc3ncnn32)c(OC)c1OC (stereo not shown),-2.01
8,Cc1ccc(Cn2cc(CCCC(=O)NCCN(C)C)c3ccccc32)cc1,2.89
9,CC1=C(C)C[C@@](SC#N)(c2ccccc2)S(=O)C1 (stereo partly shown),0.214
10,CN(Cc1ccco1)S(=O)(=O)c1ccc2[nH]c3c(c2c1)CCCC3,-7.05
11,Cc1c(C(=O)NCc2cccnc2)oc2ccc3c(c12)C(O)CC(C)(C)O3 (stereo not shown),-4.21
12,CCOc1cc(S(=O)(=O)Nc2ccccn2)ccc1Cl,-1.17
13,CC(C)Cc1ccc(-c2[nH]nc3c2C(c2ccncc2)C(C#N)=C(N)O3)cc1 (stereo not shown),-1.07
14,O=C(NCc1ccc(Cl)c(Cl)c1)c1ccc2c(c1)OCO2,-1.44
15,O=C(C1CCN(S(=O)(=O)c2ccccc2)CC1)N1CCOCC1,-11.7
16,CC1CCN(Cc2nc(-c3ccc(Cl)cc3)no2)CC1,-5.58
17,COc1ccc(NC(c2ccc(O)cc2)P(=O)(OC)OC)cc1 (stereo not shown),-7.42
18,COc1ccc(-c2noc(CN(C(=O)COc3ccc(Br)c(C)c3)C(C)C)n2)cc1,4.41
19,Cc1cccc(Cn2c(CCCNC(=O)c3ccco3)nc3ccccc32)c1,-2.99
20,O=C(O)Cn1cc(/C=C2/NC(=O)NC2=O)c2ccccc21,-1.25
21,CC(C)OP(=O)(OC(C)C)C(Nc1ccc(Br)cc1)c1c[nH]c2ccccc12 (stereo not shown),-1.59
22,COc1ccc(N2C(=O)C3ON(c4ccccc4)C(c4ccc(O)cc4)C3C2=O)cc1 (stereo not shown),-3.16
23,CCOC(=O)C1=C(CC)OC(N)=C(C#N)C1c1ccccc1Cl (stereo not shown),9.14
24,Cc1cc(C)n2c(NC(C)C)c(-c3ccc(C)o3)nc2n1,-2.41
25,Cn1c(=N)n(CC(=O)c2ccc(Br)cc2)c2ccccc21,0.161
26,COc1cc2c(cc1OC)CN(S(=O)(=O)c1ccc(Oc3ccccc3)cc1)CC2,-6.65

row,Compound,% Inhibition @ 10 uM [%]
1,N#CCNC(=O)C(NC(=O)c1ccccc1)Nc1ccccc1 (stereo not shown),1.35
2,O=C(c1ccc(Cl)cc1Cl)N1CCC(C(=O)N2CCCCCC2)CC1,-6.92
3,Cc1ccnc2nc(NC(=O)C(C)(C)C)nn12,-3.08
4,O=C1c2ccccc2C(=O)N1CC(O)COC1CCCCC1 (stereo not shown),6.12
5,O=C(O)c1ccc2c(c1)C(=O)N(c1cccc(N3C(=O)c4ccc(C(=O)O)cc4C3=O)n1)C2=O,6.11
6,CN1C(=O)C(=Cc2cccc([N+](=O)[O-])c2)C(=O)N(C)C1=O,-5.96
7,O=C(/C=C/c1ccc2c(c1)OCO2)NCCn1ccc2ccccc21,-0.396
8,COC(=O)c1ccc(Cl)c(NC(=O)CCC2CCCCC2)c1,-5.6
9,O=C(c1ccccc1)N1CC(COc2ccccc2)OC(c2ccc3c(c2)OCO3)O1 (stereo not shown),-1.98
10,Cc1ccc(C)c(NC(=O)CSc2n[nH]c(CNc3ccccc3)n2)c1,0.673
11,O=S(=O)(Nc1ccc(Oc2ccccc2)cc1)c1cccc2cccnc12,4.44
12,Cc1cccc(NC(=O)c2ccc3c(c2)OCO3)c1C,-2.29
13,Cc1cc2c(n1-c1ccc(C(=O)O)cc1)CCCC2,-1.75
14,Cc1cc(OC(C)C(=O)N(Cc2sccc2C)C2CCS(=O)(=O)C2)ccc1Cl (stereo not shown),0.569
15,CCN1CCN(c2c(C(=O)c3ccc(OC)cc3)cnc3ccc(F)cc23)CC1,-5.03
16,CCCC/N=C(\C)C1=C(O)CC(C)(C)CC1=O,3.72
17,C=CCNC(=O)CCN1N=C(c2ccc(C)cc2)CCC1=O,-0.0542
18,O=C(O)CCn1cncn1,0.0539
19,COc1ccc(CCNC(=O)c2ccc3c(Cl)c4c(nc3c2)CCC4)cc1OC,-0.495
20,CCCNC(=O)NC(=O)c1ccc2ccccc2c1,-1.5
21,CCOc1cc(C#N)c(NC(=O)c2ccc(F)cc2)cc1OCC,0.231
22,CCOc1ccccc1NC(=O)CN(c1cc(Cl)cc(Cl)c1)S(C)(=O)=O,-12.3
23,CCOC(=O)c1cnn2c(C(F)(F)F)cc(C)nc12,-3.53
24,CCOC(=O)c1nnc(O)c2ccccc12,-2.19
25,CS(=O)(=O)C1=NSC2=NC(=O)/C(=C\c3ccco3)C(=N)N21,-5.27
26,C#CC(C)(CC)NC(=O)CCc1ccccc1 (stereo not shown),2.7

row,Compound,% Inhibition @ 10 uM [%]
1,O=C(NCc1cccs1)C(NS(=O)(=O)c1ccc(Br)s1)c1ccccc1 (stereo not shown),-0.0508
2,COc1ccccc1CNC(=O)c1ccc(CS(=O)c2ccccc2)o1 (stereo not shown),-1.28
3,CNc1nc2nc(O)c3c(c2s1)OC(N)=C(C#N)C3c1ccccc1 (stereo not shown),1.76
4,COc1ccc(Cn2c(C(=O)O)c(CNCc3cccs3)c3ccc(OC)cc32)cc1,-2.97
5,O=C(Nc1nn[nH]n1)c1cc(-c2ccccc2Cl)nc2ccccc12,-4.84
6,CCOC(=O)Nc1ccncc1[N+](=O)[O-],1.44
7,Cc1cc(C)n(-c2cc(N3CCCCC3)ncn2)n1,-4.5
8,Cc1ccc(-c2c(C(=O)O)n(Cc3ccccc3)c(=O)c3ccccc23)cc1C,2.31
9,CC(Cc1ccccc1)NC(=O)C1COc2ccccc2O1 (stereo not shown),-0.401
10,COc1ccc(CC(=O)O/N=C(\N)c2cccnc2)cc1,-3.06
11,COCCN1C(=O)c2oc3ccc(C)cc3c(=O)c2C1c1ccc(OCC(N)=O)cc1 (stereo not shown),-2.91
12,CCCOCc1ccc(O)c2ncccc12,-2.13
13,O=C(c1cc(-c2ccccc2)[nH]n1)N1CCc2ccccc2C1,3.13
14,O=C(NCCc1ccncc1)c1ccc(Br)o1,3.47
15,COC(=O)C1=C(C)N(C)C(=O)NC1c1ccccc1 (stereo not shown),5.7
16,Brc1ccccc1CN1CCN(C/C=C/c2ccccc2)CC1,-3.71
17,Cc1ccc(C(=O)N[C@@H](CC2CCCCC2)C(=O)NCC#N)s1,-3.49
18,CN(C)c1ccc(CNCc2cccs2)cc1,-1.44
19,O=C(c1ccccc1)N1CCN(c2ccc(F)cc2)CC1,3.47
20,CCOC(=O)c1oc(-c2ccc(F)cc2)nc1C,-2.83
21,CC(C)CC(C(=O)N1CCOCC1)N1Cc2ccccc2C1=O (stereo not shown),-1.86
22,CS(=O)(=O)C1CCCCC1S(=O)(=O)Cc1ccc(Cl)cc1 (stereo not shown),-6.62
23,O=C(CCn1c(=O)[nH]c2ccsc2c1=O)N1CC(=O)N(CCc2ccccc2)C(=O)C1,-5
24,COc1ccc(C(=O)Nc2ccc3c(c2)OCCO3)cc1Cl,0.812
25,O=C(c1ccco1)n1nc(-c2cccnc2)nc1NCc1cccs1,-6.64
26,O=C(Nc1cccc(Cl)c1)Nc1cc(Cl)cc(Cl)c1,4.54

row,Compound,% Inhibition @ 10 uM [%]
1,O=C(/C=C\Nc1ccc2c(c1)OCO2)c1cccs1,-1.07
2,COc1cccc(CN(C)C2CCN(C)CC2)c1,4.67
3,CC1=NC2=C(C(=O)CC(C)(C)C2)C(c2ccccc2Cl)/C1=C(\O)OC(C)C (stereo not shown),-3.6
4,N#Cc1c(-c2cccc(F)c2)cc(-c2ccccc2)nc1SCC(=O)Nc1ccc(Br)cc1,7.11
5,O=C(Nc1cccc(C(F)(F)F)c1)c1cccc(C(=O)Nc2cccc(C(F)(F)F)c2)n1,-4.05
6,COc1ccc(CC(=O)Nc2ccccc2Cl)cc1,-4.35
7,CCn1nc(C(=O)NCc2ccccc2)c(Cl)c1Cl,0.343
8,COc1cc(CN2CCN(Cc3ccncc3)CC2)cc(OC)c1OC,3.86
9,CC(CCc1ccc(O)cc1)N(C)CCc1ccccc1 (stereo not shown),-0.0953
10,O=C(c1cccc(Br)c1)c1conc1C(=O)c1ccco1,-0.132
11,Nc1ccc(C(=O)N(Cc2ccccc2)Cc2ccccc2)c(C(=O)O)c1,0.145
12,CCOc1ccc(C2/C(=C(\O)OCc3ccccc3)C(C)=Nc3nnnn32)cc1 (stereo not shown),2.93
13,CCN(CC)c1ccc(NS(=O)(=O)c2ccc(NC(C)=O)cc2)cc1,1.37
14,NC1=NC(=O)CC(c2ccccc2)N1 (stereo not shown),2.33
15,COC(=O)/C=C(\C)NC(=O)c1ccccc1Cl,-4.77
16,O=C1CC(N2CCN(Cc3ccc4c(c3)OCO4)CC2)C(=O)N1c1cc(Cl)cc(Cl)c1 (stereo not shown),-7.75
17,N#CCNC(=O)C(CCc1cc(F)ccc1F)NC(=O)OCc1ccccc1 (stereo not shown),-1.82
18,Cc1occc1C(=O)N1CCN(C/C=C/c2ccccc2)CC1,0.389
19,Fc1ccccc1OCCCN1CCCC1,3
20,CCN1CCN(C2=NC(=O)/C(=C/c3cc(OC)c(OC)c(OC)c3)S2)CC1,4.74
21,CC(/N=C/c1c(O)[nH]c2ccccc12)c1ccccc1 (stereo not shown),4.74
22,CCc1c(C)sc(NC(=O)Nc2cccc(Cl)c2)c1C(N)=O,-8.02
23,O=C1c2ccccc2C(=O)N1CCSc1nnc(SCCN2C(=O)c3ccccc3C2=O)s1,4.42
24,COc1ccc(C)cc1S(=O)(=O)N1CCN(C(c2ccccc2)c2ccccc2)CC1,-1.1
25,CCCCNC(=O)CN(c1cc(Cl)cc(Cl)c1)S(=O)(=O)c1ccccc1,-7.31
